Measured values published in PubChem BioAssay AID686979 (National Center for Advancing Translational Sciences (NCATS), 2013).
Values joined by “and” are separate entries in the source; they are usually repeats but may differ in a detail not shown here. Equal entries are not always repeated. Out of some 420,000 compounds screened, about 50,000 (12%) were called active. The inconclusive results got no clear call from the source; some entries with a clear call stand among them for comparison. Calls come from the whole dose curve; as a rule, active = well fitted inhibition curve with a large enough effect; inconclusive = small, poorly fitted or top-dose-only effect; inactive = flat fitted curve, though single readings scatter. Potencies beside an inconclusive call are fits to weak or partial responses and may not hold up.
% is set by controls: 0 for no effect and ±100 for the full control effect; potency is the fitted concentration of half-maximal effect; tags give direction and shape of the fitted curve.

Experiment: qHTS for Inhibitors of human tyrosyl-DNA phosphodiesterase 1 (TDP1): qHTS in cells in presence of CPT; note: nearly all actives have a fitted effect of over 55% in size
Conditions: chicken DT40 Tdp1-/-;hTDP1 cells + 20 nM CPT, ATP luminescence, 48 h; activity change, negative = growth inhibition: at 46.2 µM (top of the series) unless noted
How it was run: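 Chicken DT40 Tdp1-/- cells complemented with human TDP1, 400 cells/well, exposed to compounds plus 20 nM camptothecin for at least 48 h at 37 C; viability read as ATP content by CellTiter-Glo luminescence.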
For COc1ccc(NS(=O)(=O)c2cccc3cccnc23)cc1Cl, the Potency was inconclusive: 16.4 µM [inhibitor, single point].
For Cc1nn(C(C)C(=O)NC2CCC(C)CC2)c(=O)c2nn(-c3ccccc3)c(C)c12 (stereo unspecified), the “activity change, negative = growth inhibition” value was inactive: -23.9%.
With COc1ccc(OCCSc2nc3ccccc3c(=O)[nH]2)cc1 the Potency was inconclusive: 18.4 µM [inhibitor, partial curve].
In the case of COC(=O)c1cc(S(=O)(=O)NCc2cccs2)c[nH]1, the “activity change, negative = growth inhibition” value was inactive: 10.4%.
With CN(C)c1ccc(-c2noc(C3CCN(C(=O)Nc4ccc(Cl)cc4)CC3)n2)cc1 the Potency was inconclusive: 14.6 µM [inhibitor, partial curve].
In the case of O=C(Nc1nnc(-c2ccc(F)cc2)o1)c1cc(Cl)sc1Cl, the Potency was active: 25.9 µM.
In the case of O=C(NC1CCCC1)C1c2ccccc2OCC(=O)N1Cc1ccccc1 (stereo unspecified), the “activity change, negative = growth inhibition” value was inactive: -18.2%.
In the case of O=C(NC1CCCC1)c1cc(-c2ccc(Cl)c(Cl)c2)on1, the Potency was inconclusive: 16.4 µM [inhibitor, single point].
In the case of CC(=O)c1c(C(C)=O)c(C)n(-c2nc(-c3ccc(C)c(C)c3)c(C)s2)c1C, the Potency was active: 18.4 µM.
With CCCCOC(=O)c1ccc(NC(=O)c2cc(Cl)c(Cl)cc2C(=O)O)cc1 the “activity change, negative = growth inhibition” value was inactive: 11.1%.
With COc1ccccc1CNc1cc(-c2ccccc2C(F)(F)F)ncn1 the Potency was active: 1.3 µM.
For Cc1cc(N/N=C/c2ccc(N(C)C)cc2)nc(NCc2ccccc2)n1, the Potency was active: 7.31 µM.
In the case of CCCSc1ccc([C@H]2N[C@@](Cc3ccccc3)(C(=O)OC)[C@H]3C(=O)N(C)C(=O)[C@@H]23)cc1, the Potency was inconclusive: 29.1 µM [inhibitor, single point].
With Fc1ccc(Cn2c(SCc3ccc(F)c(C(F)(F)F)c3)nnc2C(F)(F)F)cc1 the Potency was inconclusive: 22.4 µM [inhibitor, single point].
With COc1ccccc1Cc1c(-c2ccc(OC)c(OC)c2)nc2c3ccccc3ccn12 the Potency was inconclusive: 20.6 µM [inhibitor, single point].
In the case of CCCCC(=O)Nc1ccc(NCc2ccc(C)s2)cc1, the Potency was inconclusive: 16.4 µM [inhibitor, single point].
In the case of COc1cccc(NC(=O)N(CCN(C)C)C(C)c2cccnc2)c1 (stereo unspecified), the “activity change, negative = growth inhibition” value was inactive: 3.06%.
In the case of COc1cc(NC(=O)c2noc3c2CSc2ccccc2-3)cc(OC)c1OC, the Potency was active: 9.2 µM.
With O=C(CSc1nnc(-c2ccccn2)n1Cc1ccccc1)Nc1ccc2c(c1)OCO2 the “activity change, negative = growth inhibition” value was inactive: -26.4%.
For N#Cc1c(-c2ccccc2)cc(-c2ccccc2)nc1SCC(=O)O, the Potency was inconclusive: 16.4 µM [inhibitor, single point].
For O=C(CSc1nnc(-c2ccncc2)n1-c1ccc(Cl)cc1)NCc1cccs1, the “activity change, negative = growth inhibition” value was inactive: -10.1%.
In the case of O=C(NC1CCCCC1)c1cc(Nc2cccc(C(F)(F)F)c2)nc2ccccc12, the Potency was active: 20.6 µM.
In the case of Cc1ccccc1NC(=S)/C(=C(\[O-])c1ccc(C)c([N+](=O)[O-])c1)[n+]1ccccc1, the Potency was inconclusive: 23.1 µM [inhibitor, single point].
With COc1ccc(C(CC(=O)Nc2ccccc2OC)n2cccc2)cc1 (stereo unspecified) the Potency was active: 16.4 µM.
For Cc1ccc(SCc2nc(-c3ccc(C(=O)NCc4ccc(Cl)cc4)cc3)oc2C)cc1, the Potency was active: 14.6 µM.
For Cn1nc(-c2ccc(N3CCOCC3)c(NS(=O)(=O)c3ccccc3)c2)c2ccccc2c1=O, the Potency was inconclusive: 29.1 µM [inhibitor, single point].
In the case of CCOC(=O)N1CCN(Cc2nnc(-c3ccccc3Cl)o2)CC1, the “activity change, negative = growth inhibition” value was inactive: -24.8%.
For COc1ccccc1CN=Cc1[nH]c2ccc(Br)c(Cl)c2c1O, the activity change, negative = growth inhibition was inconclusive: -35.2% [inhibitor].
For C[C@H](NC(=O)c1nc[nH]c1C(=O)N[C@H](C)c1ccccc1)C(=O)OC(C)(C)C, the Potency was active: 14.6 µM.
In the case of O=C(NCCN1CCOCC1)c1ccc2c(c1)N(Cc1cccc(Cl)c1)C(=O)c1ccccc1S2(=O)=O, the Potency was inconclusive: 20.6 µM [inhibitor, partial curve, poor fit].
For Cc1ccn2c(Nc3ccccc3C)c(-c3ccccn3)nc2c1, the Potency was active: 5.17 µM and active: 16.4 µM.
In the case of O=C(NC(=S)Nc1cc(-c2nc3ccccc3[nH]2)ccc1Cl)c1ccc2c(c1)OCO2, the Potency was active: 5.17 µM.
For FC(F)Sc1ccc(NC(=S)NC2CCC(NC(=S)Nc3ccc(SC(F)F)cc3)CC2)cc1 (stereo unspecified), the Potency was inconclusive: 16.4 µM [inhibitor, single point].
With CCN(Cc1ccccc1)C(=O)c1nc(-c2cccc(F)c2)n2c1CCCCC2 the Potency was inconclusive: 29.1 µM [inhibitor, single point].
In the case of O=C1NC(Cc2ccc(O)cc2)c2nc3ccc(F)cc3c(=O)n2-c2cc3ccccc3cc21 (stereo unspecified), the Potency was inconclusive: 25.9 µM [inhibitor, single point].
For Cc1cc(C)c(CSc2nnc(C)n3c2cc2occc23)c(C)c1, the Potency was active: 18.4 µM.
For Cc1ccc(N(Cc2cc3ccc(C)cc3[nH]c2=O)C(=O)c2ccco2)cc1, the Potency was inconclusive: 29.1 µM [inhibitor, single point].
In the case of O=[N+]([O-])c1ccccc1S(=O)(=O)c1ccccc1[N+](=O)[O-], the Potency was inconclusive: 25.9 µM [inhibitor, partial curve].
In the case of CN1N=C(C(F)(F)F)CC1=O, the “activity change, negative = growth inhibition” value was inactive: 3.98%.
For Cc1ccc(C(=O)N(C)c2nnc(-c3ccncc3)s2)cc1, the “activity change, negative = growth inhibition” value was inactive: -5.28%.
In the case of Cc1cccc(N2CCN(C(=O)NCc3noc4ccccc34)CC2)c1C, the Potency was inconclusive: 25.9 µM [inhibitor, single point].
With O=c1[nH][nH]c2c1[C@H](c1ccc(Cl)cc1)O[C@H](CCc1ccccc1)C2 the Potency was inconclusive: 29.1 µM [inhibitor, single point].
In the case of CCOC(=O)c1ccccc1NC(=O)CCOc1ccccc1, the “activity change, negative = growth inhibition” value was inactive: -5.75%.
In the case of COc1ccc(CN2C[C@@H](CO)O[C@@H](n3cnc4c(N5CCCC5)ncnc43)C2)cc1, the Potency was inconclusive: 23.1 µM [inhibitor, partial curve, poor fit].
In the case of NC(Cc1ccc(C(F)(F)F)cc1)c1csc(Nc2ccc(S(N)(=O)=O)cc2)n1 (stereo unspecified), the Potency was active: 13 µM.
For O=C(CSc1nc2ccccc2[nH]1)NCc1ccco1, the “activity change, negative = growth inhibition” value was inactive: -12.6%.
With COc1cc(-c2noc(C)c2C(=O)NCCc2c[nH]c3ccccc23)cc(OC)c1OC the Potency was inconclusive: 28.2 µM [inhibitor, single point] and inconclusive: 29.1 µM [inhibitor, single point].
In the case of O=C(c1n[nH]c(=O)c2ccccc12)N1CCN(C2c3ccccc3-c3ccccc32)CC1, the Potency was inconclusive: 23.1 µM [inhibitor, single point].
In the case of O=C(c1cnn2c(C(F)(F)F)cc(-c3ccccc3)nc12)N1CCOCC1, the activity change, negative = growth inhibition was inconclusive: -33.1% [inhibitor].
With CCCn1c2ccc(C)cc2c2n[nH]c(=S)nc21 the Potency was inconclusive: 32.6 µM [inhibitor, single point].
For COc1ccc(-n2c(C)cc(C(=O)CCl)c2C)cc1, the Potency was active: 1.46 µM.
With COc1ccc(NC(=S)NN(C)C(=S)Nc2ccc(OC)cc2)cc1 the Potency was inconclusive: 23.1 µM [inhibitor, single point].
For O=C1Cc2cc(NS(=O)(=O)c3ccc(Cl)cc3)cc3c2N1CCC3, the Potency was inconclusive: 29.1 µM [inhibitor, single point].
With COc1ccc(CN2CC(COCc3ccccc3)Oc3ccccc3S2(=O)=O)cc1 (stereo unspecified) the Potency was inconclusive: 29.1 µM [inhibitor, single point].
With C=CCn1c(C)c(/C=C/c2cc[n+](C)cc2)c2ccccc21 the Potency was active: 3.66 µM.
For CC(C)NCCCCOc1cccc(Br)c1, the Potency was inconclusive: 29.1 µM [inhibitor, single point].
For Cc1cccc(-c2noc(CN(C(=O)COc3ccc(Br)cc3C)C(C)C)n2)c1, the Potency was inconclusive: 20.6 µM [inhibitor, single point].
For COc1ccc(CN2C[C@@H](CO)O[C@@H](n3cnc4c(N5CCN(C)CC5)ncnc43)C2)cc1, the Potency was inconclusive: 10.3 µM [inhibitor, partial curve, poor fit].
With OCCCc1nc2ccccc2n1CCCCOc1ccccc1 the Potency was inconclusive: 29.1 µM [inhibitor, single point] and inconclusive: 25.9 µM [inhibitor, single point].
For CCOC(=O)C1(CCOc2ccccc2)CCN(C(=O)CCSC)CC1, the “activity change, negative = growth inhibition” value was inactive: -25.1%.
For COc1ccccc1CNC(=O)C(=O)NCC(c1ccco1)S(=O)(=O)c1cccs1 (stereo unspecified), the “activity change, negative = growth inhibition” value was inactive: -29.9%.
In the case of CCOc1ccc(NC(=O)C(NS(=O)(=O)c2cccc3nsnc23)c2ccccc2)cc1 (stereo unspecified), the Potency was inconclusive: 18.4 µM [inhibitor, partial curve].
In the case of N#Cc1nc(N2CCOCC2)nc(N2CCOCC2)n1, the Potency was active: 18.4 µM.
In the case of COc1ccccc1NC(=O)C1=C(C)Nc2nc3ccccc3n2C1c1cccs1 (stereo unspecified), the Potency was active: 4.11 µM.
With COc1ccc(-n2c(CNC(=O)COc3ccc(Cl)cc3)n[nH]c2=S)cc1 the “activity change, negative = growth inhibition” value was inactive: 3.49%.
For CC(=O)c1ccc(OCc2ccc(Oc3c(Cl)cccc3[N+](=O)[O-])cc2)cc1, the Potency was inconclusive: 18.4 µM [inhibitor, single point].
In the case of Cn1c(=O)c2c(nc(CN3CCN(CCO)CC3)n2Cc2cccc3ccccc23)n(C)c1=O, the Potency was inconclusive: 29.1 µM [inhibitor, single point].
For Cc1ccc2oc(/N=C(\N)NC(=O)C3CC3)nc2c1, the Potency was active: 9.2 µM.
For Cc1cc(C)nc(NC(=O)c2ccc(COc3ccccc3Cl)cc2)c1, the Potency was active: 18.4 µM.
For COc1ccc(Cl)cc1NC(=O)Cn1c(=O)n(Cc2ccco2)c(=O)c2cccnc21, the Potency was inconclusive: 16.4 µM [inhibitor, partial curve].
For COc1ccc(C(=O)C2CCCN(C(=O)c3ccc(C(C)=O)s3)C2)c(C)c1 (stereo unspecified), the Potency was inconclusive: 10.3 µM [inhibitor, partial curve, poor fit].
